For this test, the target named is T1, sgp130-Fc (R&D Systems), a fusion protein of sgp130 and human IgG Fc (human, UniProt P40189 23-619).
T1 construct: extracellular domain; Immobilized on the CM5 chip in the BIAcore work; the results text calls it sgp130; also called immobilized sgp130; not shown: human IgG Fc
T1 sequence (looked up): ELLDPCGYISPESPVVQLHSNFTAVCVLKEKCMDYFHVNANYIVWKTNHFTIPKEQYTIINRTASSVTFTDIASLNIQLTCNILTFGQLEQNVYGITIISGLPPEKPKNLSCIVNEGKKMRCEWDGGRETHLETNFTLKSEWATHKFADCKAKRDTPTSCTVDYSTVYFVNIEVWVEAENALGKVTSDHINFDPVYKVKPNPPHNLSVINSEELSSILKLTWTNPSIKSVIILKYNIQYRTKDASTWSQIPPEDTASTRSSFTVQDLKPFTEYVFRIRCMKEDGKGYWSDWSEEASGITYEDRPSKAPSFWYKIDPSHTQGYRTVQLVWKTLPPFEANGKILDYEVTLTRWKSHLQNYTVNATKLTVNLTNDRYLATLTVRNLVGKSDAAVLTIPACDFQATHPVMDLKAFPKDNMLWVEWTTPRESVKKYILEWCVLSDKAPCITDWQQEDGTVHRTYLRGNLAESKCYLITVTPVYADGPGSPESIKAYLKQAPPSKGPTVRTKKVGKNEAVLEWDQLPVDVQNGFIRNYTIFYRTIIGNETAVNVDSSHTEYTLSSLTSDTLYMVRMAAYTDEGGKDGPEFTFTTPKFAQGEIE
The test is described as follows: surface plasmon resonance (BIAcore 2000), sgp130 immobilized at 18.2 ng/mm2, human IL-6 50 µg/mL plus sIL-6Rα 20 µg/mL. For orientation: SPR reads the build-up and loss of mass on a sensor chip optically.

B1: human IL-6 preincubated with sIL-6Rα (human IL-6/sIL-6Rα complex) (other)
chain 1: [about 200 residues not shown]
chain 2: LAPRRCPAQEVARGVLTSLPGDSVTLTCPGVEPEDNATVHWVLRKPAAGSHPSRWAGMGRRLLLRSVQLHDSGNYSCYRAGRPAGTVHLLVDVPPEEPQLSCFRKSPLSNVVCEWGPRSTPSLTTKAVLLVRKFQNSPAEDFQEPCQYSQESQKFSCQLAVPEGDSSFYIVSMCVASSVGSKFSKTQTFQGCGILQPDPPANITVTAVARNPRWLSVTWQDPHSWNSSFYRLRFELRYRAERSKTFTTWMVKDLQHHCVIHDAWSGLRHVVQLRAQEEFGQGEWSEWSPEAMGTPWTESRSPPAENEVSTPMQALTTNKDDDNILFRDSANATSLPVQDSSSVPLP
notes: also called human IL-6 plus sIL-6Rα
Take B1: the binding result is reported as “binds”.
